Assay results from the supplement of paper PMC4604168 (melanoma cell lines).
The list shows a part of the results. Single values are uncertain, as repeats are few or missing.

Experiments:
Assay in all cases: cell count relative to DMSO control; melanoma cells; higher = more viable cells
Details in all cases: library dose: standard library concentration; 72 h
SkMel28 = tested on: SkMel28
SkMel2 = tested on: SkMel2
SkMel30 = tested on: SkMel30
SkMel5 = tested on: SkMel5
UACC257 = tested on: UACC257
UACC62 = tested on: UACC62
WM115 = tested on: WM115
WM1716 = tested on: WM1716
WM1745 = tested on: WM1745
WM3526 = tested on: WM3526
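Further: cells treated in 1,536-well plates, then fixed and DAPI-stained, with nuclei counted from automated high-throughput microscope images.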

SMILES | cell count (SkMel28) | cell count (SkMel2) | cell count (SkMel30) | cell count (SkMel5) | cell count (UACC257) | cell count (UACC62) | cell count (WM115) | cell count (WM1716) | cell count (WM1745) | cell count (WM3526)
Cc1cn(-c2cc(NC(=O)c3ccc(C)c(Nc4nccc(-c5cccnc5)n4)c3)cc(C(F)(F)F)c2)cn1 [nilotinib] + CN(NC(=O)CC(=O)NN(C)C(=S)c1ccccc1)C(=S)c1ccccc1 [STA4783] (first compound 1 µM, partner dose 0.03 µM) | 39.4% | 53% | 81% | 41.6% | 123% | 44.6% | 25.5% | 65.4% | 21.2% | 72.3%
COc1ccc(C2=N[C@@H](c3ccc(Cl)cc3)[C@@H](c3ccc(Cl)cc3)N2C(=O)N2CCNC(=O)C2)c(OC(C)C)c1 [Nutlin-3] + CCCS(=O)(=O)Nc1ccc(F)c(C(=O)c2c[nH]c3ncc(Cl)cc23)c1F [PLX4720] (first compound 0.5 µM, partner dose 0.4 µM) | 41.4% | 106% | 84.8% | 60.1% | 80% | 58.6% | 84.5% | 58.7% | 82.7% | 70.8%
COc1ccc(C2=N[C@@H](c3ccc(Cl)cc3)[C@@H](c3ccc(Cl)cc3)N2C(=O)N2CCNC(=O)C2)c(OC(C)C)c1 [Nutlin-3] + Cc1cc(N2CCOCC2)cc2[nH]c(-c3c(NC[C@@H](O)c4cccc(Cl)c4)cc[nH]c3=O)nc12 [BMS536924] (first compound 0.5 µM, partner dose 1 µM) | 65.1% | 68.6% | 80.1% | 64.5% | 107% | 66.8% | 88.6% | 97.4% | 47.3% | 79.9%
Cn1c(=O)n(-c2ccc(C(C)(C)C#N)cc2)c2c3cc(-c4cnc5ccccc5c4)ccc3ncc21 + O=C(CCCCCCC(=O)Nc1ccccc1)NO [vorinostat] (first compound 0.02 µM, partner dose 0.4 µM) | 32.4% | 53.3% | 67.5% | 57.3% | 74.1% | 74.5% | 87.6% | 85.4% | 93.9% | 58.4%
Cc1cc(Nc2cc(N3CCN(C)CC3)nc(/C=C/c3ccccc3)n2)n[nH]1 + Cc1nc(Nc2ncc(C(=O)Nc3c(C)cccc3Cl)s2)cc(N2CCN(CCO)CC2)n1 [dasatanib] (first compound 0.2 µM, partner dose 0.02 µM) | 51.6% | 103% | 97.3% | 64.8% | 76.6% | 85.6% | 58.1% | 72.2% | 57.2% | 80.2%
COc1ccc(C2=N[C@@H](c3ccc(Cl)cc3)[C@@H](c3ccc(Cl)cc3)N2C(=O)N2CCNC(=O)C2)c(OC(C)C)c1 [Nutlin-3] + CS(=O)(=O)CCNCc1ccc(-c2ccc3ncnc(Nc4ccc(OCc5cccc(F)c5)c(Cl)c4)c3c2)o1 [lapatinib] (first compound 0.5 µM, partner dose 4 µM) | 71% | 97.5% | 129% | 65.7% | 92.2% | 54.1% | 88.7% | 81% | 88.8% | 121%
CC(C)C[C@H](NC(=O)[C@H](Cc1ccccc1)NC(=O)c1cnccn1)B(O)O [Bortezomib] + OCc1c[nH]c2ccccc12 [Indole-3-carbinol] (first compound 0.005 µM, partner dose 4 µM) | 33.3% | 53.7% | 39.2% | 17.5% | 77% | 57.8% | 19.2% | 18.8% | 25.9% | 23.8%
Cc1cc(Nc2cc(N3CCN(C)CC3)nc(/C=C/c3ccccc3)n2)n[nH]1 + CNC(=O)c1cc(Oc2ccc(NC(=O)Nc3ccc(Cl)c(C(F)(F)F)c3)cc2)ccn1 [sorafenib] (first compound 0.2 µM, partner dose 2 µM) | 74.3% | 73.2% | 92.2% | 61.5% | 77.6% | 68% | 64.8% | 103% | 51.4% | 75.1%
Cc1cc(Nc2cc(N3CCN(C)CC3)nc(/C=C/c3ccccc3)n2)n[nH]1 + CO[C@@H]1[C@H](N(C)C(=O)c2ccccc2)C[C@H]2O[C@]1(C)n1c3ccccc3c3c4c(c5c6ccccc6n2c5c31)C(=O)NC4 [Midostaurin] (first compound 0.2 µM, partner dose 0.4 µM) | 59.4% | 75.4% | 86.8% | 54.5% | 70.1% | 69.8% | 47.2% | 63.6% | 34.5% | 104%
Cn1c(=O)n(-c2ccc(C(C)(C)C#N)cc2)c2c3cc(-c4cnc5ccccc5c4)ccc3ncc21 + C#Cc1cccc(Nc2ncnc3cc(OCCOC)c(OCCOC)cc23)c1 [erlotinib] (first compound 0.02 µM, partner dose 4 µM) | 50.4% | 73.3% | 51.9% | 58.8% | 96.8% | 49.8% | 60% | 63.8% | 67.9% | 79.6%
CC(C)C[C@H](NC(=O)[C@H](Cc1ccccc1)NC(=O)c1cnccn1)B(O)O [Bortezomib] + CC(=O)c1c(C)c2cnc(Nc3ccc(N4CCNCC4)cn3)nc2n(C2CCCC2)c1=O [palbociclib] (first compound 0.005 µM, partner dose 0.2 µM) | 34.5% | 58.6% | 36.3% | 31.4% | 82.2% | 61.1% | 28% | 14.1% | 27.9% | 39.7%
COc1ccc(C2=N[C@@H](c3ccc(Cl)cc3)[C@@H](c3ccc(Cl)cc3)N2C(=O)N2CCNC(=O)C2)c(OC(C)C)c1 [Nutlin-3] + OCc1c[nH]c2ccccc12 [Indole-3-carbinol] (first compound 0.5 µM, partner dose 4 µM) | 62.7% | 127% | 104% | 81% | 83.3% | 78.7% | 90.7% | 70.6% | 100% | 141%
Cc1cn(-c2cc(NC(=O)c3ccc(C)c(Nc4nccc(-c5cccnc5)n4)c3)cc(C(F)(F)F)c2)cn1 [nilotinib] + CC(C)C[C@H](NC(=O)[C@H](Cc1ccccc1)NC(=O)c1cnccn1)B(O)O [Bortezomib] (first compound 1 µM, partner dose 0.005 µM) | 29.4% | 37.6% | 23.6% | 20.9% | 84.1% | 48.3% | 22% | 21.6% | 12% | 27.9%
Cn1c(=O)n(-c2ccc(C(C)(C)C#N)cc2)c2c3cc(-c4cnc5ccccc5c4)ccc3ncc21 + Clc1ccc(Nc2nnc(Cc3ccncc3)c3ccccc23)cc1 [vatalanib] (first compound 0.02 µM, partner dose 10 µM) | 41.4% | 47.6% | 73.3% | 47.1% | 60.7% | 58.6% | 59% | 67.9% | 54.7% | 56%
Cc1cn(-c2cc(NC(=O)c3ccc(C)c(Nc4nccc(-c5cccnc5)n4)c3)cc(C(F)(F)F)c2)cn1 [nilotinib] + CO[C@@H]1[C@H](N(C)C(=O)c2ccccc2)C[C@H]2O[C@]1(C)n1c3ccccc3c3c4c(c5c6ccccc6n2c5c31)C(=O)NC4 [Midostaurin] (first compound 1 µM, partner dose 0.4 µM) | 58.4% | 18.7% | 58.7% | 47.6% | 70.7% | 69.7% | 58.4% | 47.3% | 26.4% | 60.2%
COc1ccc(C2=N[C@@H](c3ccc(Cl)cc3)[C@@H](c3ccc(Cl)cc3)N2C(=O)N2CCNC(=O)C2)c(OC(C)C)c1 [Nutlin-3] + CN(NC(=O)CC(=O)NN(C)C(=S)c1ccccc1)C(=S)c1ccccc1 [STA4783] (first compound 0.5 µM, partner dose 0.03 µM) | 24% | 54.5% | 85.4% | 50.7% | 80.7% | 40.1% | 22% | 58.8% | 28% | 85.7%
Cn1c(=O)n(-c2ccc(C(C)(C)C#N)cc2)c2c3cc(-c4cnc5ccccc5c4)ccc3ncc21 + CNC(=O)c1cc(Oc2ccc(NC(=O)Nc3ccc(Cl)c(C(F)(F)F)c3)cc2)ccn1 [sorafenib] (first compound 0.02 µM, partner dose 2 µM) | 55.1% | 52.9% | 76.6% | 65.6% | 89.6% | 60.8% | 61.6% | 76.7% | 83.7% | 56.5%
CC(C)C[C@H](NC(=O)[C@H](Cc1ccccc1)NC(=O)c1cnccn1)B(O)O [Bortezomib] + CS(=O)(=O)CCNCc1ccc(-c2ccc3ncnc(Nc4ccc(OCc5cccc(F)c5)c(Cl)c4)c3c2)o1 [lapatinib] (first compound 0.005 µM, partner dose 4 µM) | 21.2% | 26.9% | 18.5% | 28.3% | 71% | 38.2% | 21.9% | 19.5% | 13.6% | 20.7%
Cc1cc(Nc2cc(N3CCN(C)CC3)nc(/C=C/c3ccccc3)n2)n[nH]1 + COCC[n+]1c2c(n(Cc3cnccn3)c1C)C(=O)c1ccccc1C2=O [YM155] (first compound 0.2 µM, partner dose 0.002 µM) | 41.2% | 41.2% | 83% | 34.7% | 28.5% | 58.3% | 63.9% | 73.5% | 62.9% | 63%
